# According to PubChem BioAssay AID651568 (National Center for Advancing Translational Sciences (NCATS), 2012):
# Among all 1,200 compounds or so, about 55 (5%) were called active. Inconclusive results (about 15%) are left out. Calls come from the whole dose curve; as a rule, active = well fitted inhibition curve with a large enough effect; inconclusive = small, poorly fitted or top-dose-only effect; inactive = no such curve, though single readings can be large or run the other way. The list shows a part of the results.
# Assay: qHTS Assay to Find Inhibitors of Chronic Active B-Cell Receptor Signaling: Hit Validation in Renilla Reporter Assay; note: nearly all actives have a fitted effect of over 70% in size
# Details: TMD8 IkB-Renilla luciferase reporter, NF-kB signaling; series mostly up to 57.5 µM; activity change, negative = inhibition: at the top concentration
# How it was run: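 Orthogonal secondary test of primary-screen hits in ABC-DLBCL cells carrying constitutively expressed IkB-Photinus and Renilla luciferase reporters, read by Dual-Glo luminescence; luciferases differ from the primary assay's click beetle enzymes, to exclude assay-specific artifacts.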
# % is set by controls: 0 for no effect and ±100 for the full control effect; potency is the fitted concentration of half-maximal effect.
Structure (SMILES),"activity change, negative = inhibition",Potency
NNC(=O)/C(=C\c1ccco1)NC(=O)c1ccco1,inactive: 4.87%,
Cc1ccc2[nH]c(-c3ccccc3)cc(=O)c2c1,inactive: -4.01%,
COc1ccccc1CNC(=O)CSc1ccc(Br)cc1,inactive: 0.124%,
Cc1nn(CCC(=O)NNC(=S)Nc2ccccc2)c(C)c1Br,inactive: 9.79%,
Cc1c(C(=O)OCC(C)C)[nH]c2c1C(=O)CC(c1cccs1)C2 (stereo not given),inactive: 16.2%,
C=CCNc1ncnc2c1ncn2C1OC(CO)C(O)C1O (stereo not given),inactive: -8.32%,
C[C@H](Cc1ccccc1)Nc1ncnc2c1ncn2[C@@H]1O[C@H](CO)[C@@H](O)[C@H]1O,inactive: -12.9%,
COc1cc(-c2c(-c3cc(OC)c(OC)c(OC)c3)noc2C)ccc1F,inactive: -25%,
Cc1cccc(-n2c3nc(=O)[nH]c(=O)c-3cc3cc([N+](=O)[O-])ccc32)c1,,active: 26.9 µM
O=C(NC(=S)N1CCOCC1)c1cn(-c2ccccc2)nc1-c1ccccc1,inactive: -1.67%,
COc1ccc(-c2csc(C3=C(O)CN(CCCN4CCCC4=O)C3=N)n2)cc1OC,inactive: -14.8%,
COc1cc(OC)cc(C(=O)NCc2ccc3c(c2)CCN3C(=O)c2ccccc2)c1,inactive: 2.99%,
O=C(CSc1cccc[n+]1[O-])c1ccc(Cl)s1,inactive: -9.8%,
O=C(/C=C/c1ccco1)NC(=S)Nc1cccc(-c2nc3ccccc3o2)c1,inactive: 9.24%,
COc1ccc(NC(=S)N/N=C/c2ccc(F)c(F)c2)cc1,inactive: 0.264%,
Cc1ccc(NC(=S)NNC(=S)Nc2ccc(C)cc2C)cc1,inactive: 5.73%,
CCOc1ccccc1N=NC1C(=O)N(C(N)=S)N=C1C (stereo not given),inactive: -19.6%,
COc1cc2nc(=S)n3[nH]c(COc4ccccc4C)nc3c2cc1OC,inactive: -24.3%,
CCOC(=O)c1[nH]c(C)c(C(=O)Nc2cc(Cl)ccc2C)c1C,inactive: 1.81%,
CCCc1noc2c1C(c1ccoc1)C(C#N)=C(N)N2 (stereo not given),,active: 23.9 µM
Cc1cccc(C)c1OCC(=O)N/N=C/C=C/c1ccco1,inactive: -3.11%,
COc1cccc2sc(Nc3nnc(-c4ccccc4Cl)o3)nc12,inactive: 19.2%,
CCCCNC(=S)NNC(=O)CCn1nc(C)c(Br)c1C,inactive: 5.36%,
COc1ccccc1C1=NOC(COc2ccc3c(C)cc(=O)oc3c2)C1 (stereo not given),inactive: -19.8%,
COc1ccc(S(=O)(=O)N2CCOCC2)cc1NC(=O)/C=C/c1ccc(F)cc1,inactive: 2.91%,
O=C(NC(=S)NC1CCSC1=O)c1cccs1 (stereo not given),inactive: 2.61%,
CCO[C@H]1OC(C(=O)NCc2nc3ccccc3[nH]2)=C[C@@H](C2CC2)[C@@H]1CCCO,inactive: -7.78%,

Structure (SMILES),"activity change, negative = inhibition",Potency
O=C(Nc1ncc(Cc2ccc(SC(F)F)cc2)s1)c1ccc(OC(F)F)cc1,inactive: -27.7%,
COc1ccc(CN(C)C(=O)Cn2cnc3c(NCc4ccccc4)ncnc32)cc1OC,inactive: -17.5%,
NC(=S)N=Nc1c(O)n(Cc2ccc(F)cc2)c2ccccc12,inactive: -6.07%,
COc1ccc(-c2nnc(SCC(=O)NCc3ccccc3)nc2-c2ccc(OC)c(OC)c2)cc1OC,inactive: 2.39%,
Cc1ccc(/C(C#N)=C\c2ccc(N3CCOCC3)o2)cc1,inactive: -20.7%,
COc1ccc(CCNC(=O)C(=O)c2c(C)n(C)c3ccccc23)cc1OC,inactive: 1.47%,
COc1cc(Br)cc(/C=C/c2ccc3cccc(O)c3n2)c1O,inactive: -27.7%,
CCOc1cc(C(=O)N/N=C(\C)Cc2ccc(OC)cc2)cc(OCC)c1OCC,inactive: -7.08%,
CCOc1ncccc1C(=O)N1CCN(c2cccc(C)c2C)CC1,inactive: 1.81%,
O=C1NC(=Nc2ccc(O)cc2)S/C1=C\C=C\c1ccco1,inactive: -0.0749%,
CCOC(=O)C(NC(=O)N(C)C)(Nc1sc(C)c(CC)c1C#N)C(F)(F)F (stereo not given),inactive: 2.92%,
NCCNC(=O)Cc1ccc(NC(=O)Cc2ccc(Nc3ncnc4c3ncn4[C@@H]3O[C@H](CO)[C@@H](O)[C@H]3O)cc2)cc1,inactive: -11.2%,
CCOc1cc(Br)c(C=O)cc1OCC,inactive: -3.14%,
O=C(COc1ccc(C(=O)c2ccc(F)cc2)cc1)NCc1ccc(F)cc1,inactive: 1.41%,
Cc1cc(=O)[nH]c2ccc(S(=O)(=O)Nc3ccc(O)cc3)cc12,inactive: 9.49%,
COc1ccc(N(C(=O)c2ccccc2C)S(=O)(=O)c2cccs2)cc1,inactive: 12.6%,
O=C1NC(=O)C(=C2CCCCCC2)S1,inactive: -1.65%,
O=C(N/N=C/c1ccc([N+](=O)[O-])o1)c1cc(-c2ccc(-c3ccccc3)cc2)nc2ccccc12,inactive: 2.9%,
CCOc1ccc2c(c1)C(C)=CC(C)(C)N2S(=O)(=O)c1ccc(C)cc1,inactive: -10.9%,
CCOC(=O)CSc1nc(C)c2cccc(C)c2n1,inactive: 0.405%,
COc1cc2c(c(OC)c1OC)C(c1ccc(C)cc1)CC(=O)O2 (stereo not given),inactive: 8.03%,
CSc1ccc(COC(=O)c2cc([N+](=O)[O-])ccc2N2CCOCC2)cc1,inactive: -21.4%,
CCCC(=O)O[C@]1(C(=O)CO)CC[C@H]2[C@@H]3CCC4=CC(=O)CC[C@]4(C)[C@H]3[C@@H](O)C[C@@]21C,inactive: 10.2%,
COc1ccc(-c2nn(-c3ccccc3)cc2/C=C/C(=O)O)cc1[N+](=O)[O-],inactive: -19.2%,
CCOc1cc(-c2cc(-c3ccc(NC(C)=O)cc3)nc(N)c2C#N)ccc1O,inactive: -20.3%,
CN(CC(=O)Nc1ccccc1C(F)(F)F)C(=O)c1ccccc1Sc1ccccc1C#N,inactive: 27.4%,
CN(C)NC(=S)NC(=O)C12CC3CC(CC(C3)C1)C2,inactive: -3.5%,

Structure (SMILES),"activity change, negative = inhibition",Potency
Nc1ncnc2c1ncn2[C@@H]1O[C@H](CNCc2cccc(C#Cc3ccccc3)c2)[C@@H](O)[C@H]1O,inactive: -0.571%,
CCOC(=O)c1ccccc1NC(=O)Cn1c(-c2nonc2N)nc2ccccc21,inactive: -4.59%,
COc1ccc(NC(=O)C(=O)c2cn(CC(=O)N3CCCC3)c3ccccc23)cc1,inactive: 5.43%,
CCn1ncc(C2=NOC(C(=O)NCc3ccc(Cl)cc3)C2)c1C (stereo not given),inactive: -9.03%,
CCOC(=O)Cc1csc(NC(=S)NC(=O)c2ccccc2)n1,inactive: 4.06%,
COC(=O)CCC(=O)NC(=S)Nc1sc(C)c(C)c1C(N)=O,inactive: 4.1%,
CC(C)Sc1ccccc1C(=O)Nc1ccc2c(c1)n(C)c(=O)n2C,inactive: 17.2%,
CCOC(=O)c1c(C)sc2c1N(C(C)=O)c1cc(Cl)ccc1S2,inactive: -14.3%,
CC1=Nc2cc(C(=O)NCC3CCCO3)ccc2Sc2ccc(C)cc21 (stereo not given),inactive: -2.91%,
Cc1nnc(C)n1/N=C/c1cc2ccccc2nc1Cl,inactive: -10.6%,
C#CCOc1ccc(C2C3=C(COC3=O)Nc3cc4c(cc32)OCO4)cc1OC (stereo not given),inactive: -16%,
COc1cccc(N2CCN(C(=O)c3ccc(CS(=O)c4ccccc4C)o3)CC2)c1 (stereo not given),inactive: -4.07%,
NNC(=O)c1[nH]c2ccccc2c1-c1ccccc1,inactive: -21.4%,
CC[C@@H](C)[C@H](NC(=O)CCc1c(C)c2cc3c4c(oc3c(C)c2oc1=O)CCCC4)C(=O)O,inactive: -26.6%,
CCN(CC)c1ccc(NC(=O)c2cc(OC)cc(OC)c2)c(C)c1,inactive: 4.37%,
COc1cc2c(c(OC)c1OC)-c1ccc(OC)c(=O)cc1C(NC(C)=O)CC2 (stereo not given),inactive: -16.3%,
COC(=O)c1cnc(Oc2ccc(NC(=O)NC(=O)c3c(OC)cccc3OC)cc2)cc1C(F)(F)F,inactive: -0.497%,
COc1cc(OC)c2c(c1)OC(=O)CC2c1cc(OC)c(OC)c(OC)c1 (stereo not given),inactive: 2.97%,
COc1ccc(C2CC(=O)Oc3cc(OC)c(OC)c(OC)c32)cc1 (stereo not given),inactive: 2.1%,
Cc1ccccc1N=Nc1c(C)[nH]n(C(N)=S)c1=O,inactive: -10.4%,
CCCCC(=O)NC(=S)Nc1nnn(CCC)n1,inactive: -0.93%,
O=C(O)CCCCCCCCc1cn(Cc2ccc(C(=O)c3ccccc3)cc2)nn1,inactive: 2.47%,
NNC(=O)c1[nH]c2ccc(Cl)cc2c1-c1ccccc1,inactive: -23.5%,
O=C(COc1ccc(C(=O)c2ccccc2)cc1)NCc1ccc(F)cc1,inactive: -1.09%,
Cc1ccccc1NC(=S)NCc1ccc2c(c1)cc(C)n2C,inactive: 3.22%,
CCOc1cc(/C=N\NC(N)=O)cc(Br)c1OC(C)C,inactive: -6.49%,
Cc1nn(CCC(=O)NNC(=S)NCC(C)C)c(C)c1Br,inactive: 5.3%,

Structure (SMILES),"activity change, negative = inhibition",Potency
CCCC1=Nc2cc(C(=O)NCCCOCC)ccc2Sc2ccccc21,inactive: -1.19%,
CC1=Nc2cc(C(=O)NC3CCCC3)ccc2Sc2ccc(Cl)cc21,inactive: -3.91%,
COc1cccc(C2NC(=S)NC(C)=C2C(=O)c2ccccc2)c1OC (stereo not given),inactive: -1.68%,
COc1cc(NC(=S)NC(=O)c2ccccc2F)ccc1NC(=O)c1ccco1,inactive: -16.4%,
Cc1cc(C)c(C#N)c(SCc2c(F)cccc2[N+](=O)[O-])n1,inactive: 0.286%,
Cc1nc(NC(=S)Nc2ccccc2)sc1C,inactive: 6.17%,
CC1=Nc2cc(C(=O)NCc3ccco3)ccc2Sc2ccc(C)cc21,inactive: 4.54%,
C/C(CCC(C)C)=N\NC(=O)COc1ccccc1-c1ccccc1,inactive: 3.16%,
N#Cc1ccccc1NC(=O)c1cccc(COc2ccc(Cl)cc2Cl)c1,inactive: -2.34%,
C=CCOc1ccc(/C=C2\SC(N)=NC2=O)cc1OC,inactive: 1.12%,
COc1cc(C(=O)NNC(=O)C2CC=CCC2C(=O)O)cc(OC)c1OC (stereo not given),inactive: -1.78%,
Cc1ccc(C(=O)O)cc1NC(=S)NC(=O)C(c1ccccc1)c1ccccc1,inactive: -23%,
CC[C@]12c3[nH]c4cc(CCC(=O)N(C)C)ccc4c3CCN1C(=O)[C@@H](CC(=O)NCCc1ccccn1)C[C@@H]2C(=O)N1CCN(C(=O)C2CC2)CC1,inactive: -3.84%,
COc1ccc(CN2C[C@H]3CCCN3c3cc(Br)ccc3S2(=O)=O)cc1,inactive: 7.33%,
Cc1ccc(OC/C(=N\O)C(C)(C)C)c([N+](=O)[O-])c1,inactive: 3.16%,
CCc1nnc(NC(=S)Nc2ccccc2)s1,inactive: 1.96%,
COc1cc2c(cc1OC)C(c1cc3cc(OC)c(OC)cc3[nH]c1=O)N(C(=O)C1CC1)CC2 (stereo not given),inactive: -6.95%,
Oc1c(CN2CCN(c3ccccc3)CC2)cc(Br)c2cccnc12,inactive: -23.3%,
S=C(Nc1ccccc1Cl)N(Cc1ccccc1)Cc1ccccn1,inactive: 23.3%,
Cc1ccccc1C1=NC(C(F)(F)F)(C(F)(F)F)c2c(n(C)c(=O)n(C)c2=O)N1,inactive: 0.294%,
CCc1ccc(N2CC(C(=O)OCC(=O)Nc3ccccc3C)CC2=O)cc1 (stereo not given),inactive: 0.55%,
CCC1=Nc2cc(C(=O)NCc3ccco3)ccc2Sc2ccc(Cl)cc21,inactive: 0.101%,
Cn1c(=S)c2[nH]c(SCCN3CCCC3)nc2n(C)c1=O,inactive: 3.68%,
S=C(Nc1ccccc1)c1nc2ccccc2s1,inactive: 5.84%,
